From ChEMBL document CHEMBL4888484, “Replenishing the malaria drug discovery pipeline: Screening and hit evaluation of the MMV Hit Generation Library 1 (HGL1) against asexual blood stage Plasmodium falciparum ,using a nano luciferase reporter read-out” (2022)
Hit rate of the full screen: of about 150,000 compounds, about 540 (0.36%) showed an effect of 50% or more. This is one part of the list.

tested on: Plasmodium falciparum; test: Primary screen in NF54 nanoGlo assay, in single point, at 2uM, 72h; a lower Z score goes with more inhibition; assay type: functional, Erythrocyte; settings: timepoint 72 hour

SMILES	% Inhibition	Z score
Cc1ncsc1CNC(C)CCC1CC1(Cl)Cl (stereo unspecified)	-10%	1.83
Cn1cc(CNc2ccc3[nH]c(=O)[nH]c3c2)c(C(C)(C)C)n1	-5%	0.71
c1csc(OC2CCN(C3CCNCC3)CC2)n1	-8%	0.99
CC[C@@H]1NC(=O)N(c2cccc(NC(=O)c3nccnc3N)c2)C1=O	-5%	0.84
COCCn1ccnc1CN(Cc1ccsc1)C1CCCCC1	-20%	1.9
NC(=O)CN1CCCN(c2ncc(Cl)c(N3CCCN(CC(N)=O)CC3)n2)CC1	-27%	3.18
CC(C)(C)c1ccncc1CNC(=O)N1CC[C@@H]2OCC(=O)N[C@H]2C1	20%	-2.59
CC(C(=O)NCc1ccco1)N1CCCCC1Cn1cncn1 (stereo unspecified)	-17%	1.43
Cc1cc(C(=O)NS(=O)(=O)CCC2CCOCC2)nn1C(C)C	-8%	1.4
C[C@H]1CN(CCC(=O)O)Cc2cc(Cl)ccc2O1	-2%	0.25
Cc1occc1C(=O)Nc1cc(C2CC2)nn1[C@H]1CCS(=O)(=O)C1	-11%	1.12
COc1cccc(CN(Cc2nc(C(=O)NCCN3CCOCC3)co2)[C@@H](C)C(C)C)c1	-13%	1.32
O=C(NCc1nnc2n1CC[C@H](C(F)(F)F)C2)c1ccc(=O)[nH]c1	12%	-1.54
CC(NC(=O)C(C)N1C(C)CCC1C)c1ccc(-n2ccnn2)cc1 (stereo unspecified)	-1%	0.13
CCc1csc(CNC(=O)c2cncc(O)n2)n1	-21%	2.02
CCO[C@H]1COC[C@@H]1Nc1nc2ccc(Cl)cc2s1	7%	-0.97
Cc1noc(C)c1CNC(=O)c1cn(CC2(O)CCN(Cc3ccccc3)CC2)nn1	28%	-3.14
CCN(Cc1cnsn1)[C@@H](C)c1cccc(OC)c1	-8%	1.04
Cc1ccc(S(=O)(=O)c2c(NS(=O)(=O)c3ccccc3)n(CCc3ccccc3)c3nc4ccccc4nc23)cc1	99%	-11.17
CCN1CCN(C(=O)[C@@H](NC(=O)c2cc3n(n2)CCCN(Cc2ccccc2)C3=O)C(C)C)CC1	-8%	0.83
Cn1cc([C@H]2CN(Cc3cc(F)ccc3F)C[C@H]2CC(=O)O)nn1	-25%	2.17
CCn1cnc2c1CN(C(=O)c1ccco1)CC2	-11%	1.23
C[C@@H](CNCc1nnc2ccccn12)c1cccc(Cl)c1	-8%	1.01
CNc1ncccc1C(=O)N1CCN2C(=O)OC[C@H]2C1	-7%	1.46
CCN(CC1CCN(c2ccccn2)CC1)C1CC(C)OC1=O (stereo unspecified)	4%	-0.33
CC(C)NC(=O)CN(C)CC(=O)NC[C@H](O)c1c(Cl)cccc1Cl	-4%	0.46
O=C(c1nccc2ccccc12)N1CCc2ccccc21	-4%	0.46

SMILES	% Inhibition	Z score
O=c1cc(C(F)(F)F)nc(-n2[nH]c3c(c2=O)CCCC3)[nH]1	30%	-3.81
C[C@H](NCc1ncc(Br)s1)c1ccc(C#N)cc1	-9%	1.3
O=C(CCn1cncn1)N1CCC[C@@]2(CCC(=O)N(Cc3ccccn3)C2)C1	-2%	0.19
Cc1nn(-c2ccccc2)c(Oc2ccc(F)cc2)c1CN(C[C@H](O)COC(C)(C)C)C1CC1	4%	-0.61
O=C(C[C@@H]1NC(=O)N(CCc2ccccc2)C1=O)NCc1nc2ccccc2[nH]1	-7%	0.91
COc1ccc(CCN[C@H]2CCCS(=O)(=O)C2)cc1OC	-8%	1.18
O=S1(=O)NC(CN2CCC[C@H](CN3CCCCCC3)C2)=Nc2ccccc21	-7%	0.95
COc1cccc(CNC[C@H](O)COc2cccc3ccccc23)c1	-4%	0.68
COC1(C)CC(NS(C)(=O)=O)C1(C)C (stereo unspecified)	-12%	2.18
CNC(=NCc1nc(C2CC2)cs1)NCc1ccco1	-8%	1.34
COc1ccc2[nH]cc([C@H](CC(=O)Nc3ccccc3)c3ccc(Cl)c(C(F)(F)F)c3)c2c1	-9%	1.09
Cc1cc(C)n(Cc2ccccc2)c(=O)n1	-45%	5.29
C[C@H]1c2cccn2CCN1CC(=O)Nc1ccc2c(c1)OCCCO2	-11%	1.76
Cc1cccnc1C1CCCC(Nc2cccc(NC(N)=O)c2)C1 (stereo unspecified)	0%	0.02
Cc1ccc(CCC(=O)N[C@H]2CN(CC(N)=O)C[C@@H]2C(C)C)cc1C	-8%	0.89
CC(=O)Nc1c2n(c3ccc(F)cc13)CC(C)(C(=O)NC1CCCC1)N(CC1CCCO1)C2=O (stereo unspecified)	-13%	1.23
CCOC(=O)c1cc2n(n1)C[C@@](C)(C(=O)NCCC(C)C)N(c1cccc(C)c1C)C2=O	-6%	0.75
O=C(Cc1noc(-c2occ3c2CCC3)n1)N(CC(F)(F)F)C1CC1	2%	-0.26
Clc1cc(Cl)cc(N[C@H](c2cccnc2)c2ncc[nH]2)c1	14%	-2.48
COC(=O)Nc1cccc(OS(=O)(=O)[C@@H]2CCCC[C@@H]2OC)c1	-3%	0.42
Cc1cccc(C(=O)NCc2cccnc2N2CCC[C@H](O)C2)n1	9%	-1.18
O=c1[nH]nc2ccc(NCCc3csc(-c4ccccc4)n3)nn12	-9%	1.4
Cc1nc(CC2CC2)oc1C(=O)N1CCC(Nc2nccs2)CC1	-10%	1.49
CC(C)(C)OC(=O)Nc1ccc2c(c1)OCCNC2	-3%	0.25
CC[C@@H]1CN(C(=O)Cc2ccc3c(c2)OCO3)CC[C@]1(C)O	3%	-0.24
Cc1n[nH]c(C)c1CNCc1ccc(N(C)C)nc1	-1%	0.13
